Measurements published in publication PMC9911399, “Two distinct binding modes provide the RNA-binding protein RbFox with extraordinary sequence specificity”.
Numbering of substitutions follows the chain as printed; changes in the protein carry UniProt numbers. Some of the results follow.

T1: RBFOX1 RRM (Homo sapiens, UniProt Q9NWB1 109-208)
T1 sequence: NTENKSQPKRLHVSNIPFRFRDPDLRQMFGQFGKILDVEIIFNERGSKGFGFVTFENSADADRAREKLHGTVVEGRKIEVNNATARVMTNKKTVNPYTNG

B1: GUGGGUG (DNA:RNA)
RNA: GGGAGACCGGAAUUCAGAUUGUCCGUGGGUGUUAAAUCCCGUCGUAGCCACCA
DNA 1: CAATCTGAATTCCGGTCTCCC
DNA 2: TGGTGGCTACGACGGGATT
B2: GGGACCA (DNA:RNA)
RNA: B1 RNA with U26G, G28A, G29C, U30C, G31A
DNA 1: CAATCTGAATTCCGGTCTCCC
DNA 2: TGGTGGCTACGACGGGATT
B3: GCCAUAU (DNA:RNA)
RNA: B1 RNA with U26C, G27C, G28A, G29U, U30A, G31U
DNA 1: CAATCTGAATTCCGGTCTCCC
DNA 2: TGGTGGCTACGACGGGATT
B4: CAAUCUG (DNA:RNA)
RNA: B1 RNA with G25C, U26A, G27A, G28U, G29C
DNA 1: CAATCTGAATTCCGGTCTCCC
DNA 2: TGGTGGCTACGACGGGATT
B5: AACUGAC (DNA:RNA)
RNA: B1 RNA with G25A, U26A, G27C, G28U, U30A, G31C
DNA 1: CAATCTGAATTCCGGTCTCCC
DNA 2: TGGTGGCTACGACGGGATT
B6: UCUCGCA (DNA:RNA)
RNA: B1 RNA with G25U, U26C, G27U, G28C, U30C, G31A
DNA 1: CAATCTGAATTCCGGTCTCCC
DNA 2: TGGTGGCTACGACGGGATT
B7: UACAUGG (DNA:RNA)
RNA: B1 RNA with G25U, U26A, G27C, G28A, G29U, U30G
DNA 1: CAATCTGAATTCCGGTCTCCC
DNA 2: TGGTGGCTACGACGGGATT
B8: CAUACCA (DNA:RNA)
RNA: GGGAGACCGGAAUUCAGAUUGUCCCAUACCAUUAAAUCCCGUCGUAGCCACCA
DNA 1: CAATCTGAATTCCGGTCTCCC
DNA 2: TGGTGGCTACGACGGGATT
B9: ACGACUG (DNA:RNA)
RNA: B1 RNA with G25A, U26C, G28A, G29C
DNA 1: CAATCTGAATTCCGGTCTCCC
DNA 2: TGGTGGCTACGACGGGATT
B10: CUAUGGA (DNA:RNA)
RNA: B8 RNA with A26U, U27A, A28U, C29G, C30G
DNA 1: CAATCTGAATTCCGGTCTCCC
DNA 2: TGGTGGCTACGACGGGATT
B11: AGCGGCG (DNA:RNA)
RNA: B1 RNA with G25A, U26G, G27C, U30C
DNA 1: CAATCTGAATTCCGGTCTCCC
DNA 2: TGGTGGCTACGACGGGATT
B12: UGAGGAA (DNA:RNA)
RNA: B1 RNA with G25U, U26G, G27A, U30A, G31A
DNA 1: CAATCTGAATTCCGGTCTCCC
DNA 2: TGGTGGCTACGACGGGATT
B13: GUUGCGG (DNA:RNA)
RNA: B1 RNA with G27U, G29C, U30G
DNA 1: CAATCTGAATTCCGGTCTCCC
DNA 2: TGGTGGCTACGACGGGATT
B14: UUCACCG (DNA:RNA)
RNA: B8 RNA with C25U, A26U, U27C, A31G
DNA 1: CAATCTGAATTCCGGTCTCCC
DNA 2: TGGTGGCTACGACGGGATT
B15: UUGGCUG (DNA:RNA)
RNA: B1 RNA with G25U, G29C
DNA 1: CAATCTGAATTCCGGTCTCCC
DNA 2: TGGTGGCTACGACGGGATT
B16: CGCUAAC (DNA:RNA)
RNA: B8 RNA with A26G, U27C, A28U, C29A, C30A, A31C
DNA 1: CAATCTGAATTCCGGTCTCCC
DNA 2: TGGTGGCTACGACGGGATT
B17: GAGGCCC (DNA:RNA)
RNA: B8 RNA with C25G, U27G, A28G, A31C
DNA 1: CAATCTGAATTCCGGTCTCCC
DNA 2: TGGTGGCTACGACGGGATT
B18: GUGUCUU (DNA:RNA)
RNA: B1 RNA with G28U, G29C, G31U
DNA 1: CAATCTGAATTCCGGTCTCCC
DNA 2: TGGTGGCTACGACGGGATT
B19: GUCCCGG (DNA:RNA)
RNA: B1 RNA with G27C, G28C, G29C, U30G
DNA 1: CAATCTGAATTCCGGTCTCCC
DNA 2: TGGTGGCTACGACGGGATT
B20: CAAUUCA (DNA:RNA)
RNA: B8 RNA with U27A, A28U, C29U
DNA 1: CAATCTGAATTCCGGTCTCCC
DNA 2: TGGTGGCTACGACGGGATT

Each binder was assayed against T1, RBFOX1 RRM (assay: EMSA; HiTS-Eq, 1 nM pool, 10 min; buffer printed only for the single-RNA assays: 10 mM Tris pH 7.5, 150 mM NaCl, 3.4 mM EDTA, 0.001% NP-40, 30 C). Conditions: tags: His6 N-terminal (pET28a); label: 5' 32P.
Summary of the method: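 A pool of RNA with 7 randomized nucleotides, 5′-radiolabelled and with DNA-annealed flanks, was equilibrated at 1 nM for 10 min in 50 µL with purified RbFox RRM, wild type or mutant, across increasing protein concentrations. Free RNA was separated by 8% native PAGE, excised, reverse-transcribed, barcoded by PCR and sequenced. Relative association constants were obtained from read-count changes of each RNA species versus the control reaction and normalised to the cognate motif.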

Binder	binding signal
B1	0.0301 KA relative to UGCAUGU
B2	0.00647 KA relative to UGCAUGU
B3	0.00334 KA relative to UGCAUGU
B4	0.00656 KA relative to UGCAUGU
B5	0.00667 KA relative to UGCAUGU
B6	0.0132 KA relative to UGCAUGU
B7	0.0106 KA relative to UGCAUGU
B8	0.00134 KA relative to UGCAUGU
B9	0.0123 KA relative to UGCAUGU
B10	0.00372 KA relative to UGCAUGU
B11	0.0189 KA relative to UGCAUGU
B12	0.00907 KA relative to UGCAUGU
B13	0.0134 KA relative to UGCAUGU
B14	0.0049 KA relative to UGCAUGU
B15	0.0406 KA relative to UGCAUGU
B16	0.00699 KA relative to UGCAUGU
B17	0.0156 KA relative to UGCAUGU
B18	0.0173 KA relative to UGCAUGU
B19	0.0188 KA relative to UGCAUGU
B20	0.00106 KA relative to UGCAUGU
